{
  "source": "ChEMBL document CHEMBL1201862",
  "about": "“PubChem BioAssay data set” (2004)",
  "note": "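Values below derive from 48-hour exposures of cells grown in 96-well plates, with endpoints linearly interpolated between the two concentrations bracketing the appropriate inhibition level. Here, GI50 denotes the concentration required for 50% inhibition of growth.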 Active and inactive are the calls of the source. No stated cut-off is given here; in the data, active = GI50 up to about 1.1 µM and inactive = higher. Peptide text beside a SMILES is read from it.",
  "data": [
    {"tested_on": "NCI-H322M", "assay": "DTP human tumour cell line panel, 48 h", "values": [
      {"molecule": "C/C(=C1/N=C(c2cc([N+](=O)[O-])ccc2Cl)N(c2ccc(Br)cc2)C1=O)c1cc2ccccc2oc1=O", "GI50": "inactive: 40.6 µM"},
      {"molecule": "CCC(C)C1NC(=O)C2CCCN2C(=O)CNC(=O)C(C)NC(=O)C(Cc2ccccc2)NC(=O)C(C(C)C)NC1=O", "note": "(stereo not given) (cyclo(GPIVFA); configuration not given here)", "GI50": "inactive: > 100 µM"},
      {"molecule": "CC(C)c1cccc(C(C)C)c1/N=C(/N)C#N", "GI50": "inactive: > 100 µM"},
      {"molecule": "c1ccc(C2C3=C(c4ccccc4CC3)N3c4cc5c(cc4=NC34CCCCC24)Nc2ccccc2N=5)cc1", "note": "(stereo not given)", "GI50": "inactive: > 10 µM"},
      {"molecule": "CC(=O)Oc1ccc2cc(-c3ccc(OC(C)=O)c(OC(C)=O)c3)c(=O)oc2c1", "GI50": "inactive: 77.8 µM"},
      {"molecule": "O=c1[nH]c2ccccc2c2oc(-c3ccccc3)nc12", "GI50": "inactive: 23.9 µM"},
      {"molecule": "Nc1nc(CC2(O)CCCCC2)cc(-c2ccccc2)n1", "GI50": "inactive: > 55.8 µM"},
      {"molecule": "C[C@@]1(CO)[C@H](O)CC[C@@]2(C)[C@H]1CC[C@H]1C[C@@H]3C[C@@]12CC[C@@]3(O)COC(=O)CN", "GI50": "inactive: 63.4 µM"},
      {"molecule": "CCOC(=O)c1c(-c2ccccc2)oc(=O)c(Cc2cccc3cccnc23)c1-c1ccccc1", "GI50": "inactive: > 10 µM"},
      {"molecule": "COc1cc(OC)cc(-n2c(N)c(-c3nc4ccccc4n3C)c3ccc([N+](=O)[O-])cc3c2=O)c1", "GI50": "inactive: 73.3 µM"},
      {"molecule": "COc1ccc(OC)c(C2CCc3c(cnc4nc(N)nc(N)c34)C2)c1", "note": "(stereo not given)", "GI50": "inactive: 2.73 µM"},
      {"molecule": "Nc1nc(NNc2cccc(F)c2)cc(=O)[nH]1", "GI50": "inactive: 45.1 µM"},
      {"molecule": "Nc1nc(N)nc(CCCc2nc(N)nc(N)n2)n1", "GI50": "inactive: > 100 µM"},
      {"molecule": "COc1ccc2c(=O)c3cc([N+](=O)[O-])ccc3n(C)c2c1", "GI50": "inactive: > 100 µM"},
      {"molecule": "CCOC(=O)COS(=O)(=O)C(F)(F)F", "GI50": "inactive: > 100 µM"},
      {"molecule": "COc1ccc2cccc(C(=O)c3ccc(C)c4c3CCC4)c2c1", "GI50": "inactive: 65.9 µM"},
      {"molecule": "Cc1[nH]c2ncn3ncnc3c2c1Cc1ccccc1", "GI50": "inactive: > 100 µM"},
      {"molecule": "Nc1ncc(Cc2nn3c(COc4ccc(Cl)cc4)nnc3s2)s1", "GI50": "inactive: 11.2 µM"},
      {"molecule": "COc1ccccc1NC(=S)NN=C(C)c1cccc(C(C)=NNC(=S)Nc2ccccc2OC)n1", "GI50": "inactive: 36.3 µM"},
      {"molecule": "CCN(CC)C1C(=O)NC1C#Cc1ccccc1", "note": "(stereo not given)", "GI50": "inactive: > 100 µM"},
      {"molecule": "Cc1ccc(-c2cn3c(nc4ccccc43)c(/C=C/c3ccco3)n2)cc1", "GI50": "inactive: > 100 µM"},
      {"molecule": "CC1(C)CC(=O)c2c(nc3c4c([nH]c(-c5ccc(Br)cc5)c24)CC(C)(C)C3)C1", "GI50": "inactive: > 100 µM"},
      {"molecule": "COC1=CC(=O)C2=C(C1=O)[C@H]1CC[C@]3(C)[C@@H](O)CC[C@H]3[C@@H]1CC2", "GI50": "inactive: 16.7 µM"},
      {"molecule": "O=C(Cn1c2c(c3ccccc31)CCCC2)N1CCOCC1", "GI50": "inactive: > 100 µM"},
      {"molecule": "COC(=O)/C(C#N)=C1\\NN=NN1CCCN1CCOCC1", "GI50": "inactive: > 100 µM"},
      {"molecule": "CC(=O)N1C(Nc2ccccn2)CCN1c1ccccc1", "note": "(stereo not given)", "GI50": "inactive: > 10 µM"},
      {"molecule": "O=C1c2c(Cl)c(Cl)c(Cl)c(Cl)c2C(=O)N1CCN(c1c(Cl)ssc1=O)c1c(Cl)ssc1=O", "GI50": "inactive: > 100 µM"},
      {"molecule": "Cc1cnc2[nH]c(-c3ccccc3)cc(=O)c2c1", "GI50": "active: 0.25 µM"},
      {"molecule": "COC(=O)C12C3C4C5C3(C#N)C1C5(C(=O)OC)C42C(=O)N(C(C)C)C(C)C", "note": "(stereo not given)", "GI50": "inactive: > 100 µM"},
      {"molecule": "NS(=O)(=O)c1ccc(Nc2c3ccccc3nc3c(C(=O)NCCCN(CCO)CCO)cccc23)cc1", "GI50": "inactive: 30.7 µM"},
      {"molecule": "COc1ccccc1/C=C1\\C(=O)N(C(=O)Cc2ccccc2)N=C1C", "GI50": "inactive: 28.6 µM"},
      {"molecule": "CC(=O)c1cccc(NC(=O)/C(=N\\NC(=S)NN)C2C(=O)Nc3ccccc3[S+]2[O-])c1", "note": "(stereo not given)", "GI50": "inactive: > 100 µM"},
      {"molecule": "Cc1cc2c(O)c(c1)CN(CC(=O)O)Cc1cc(C)cc(c1O)CN(CC(=O)O)Cc1cc(C)cc(c1O)CN(CC(=O)O)C2", "GI50": "inactive: > 100 µM"},
      {"molecule": "O=C(O)CSc1nnc(CCCCCCCCc2nnc(SCC(=O)O)o2)o1", "GI50": "inactive: > 100 µM"},
      {"molecule": "C=C1CC(c2ccc(OCCCN3C(=O)c4ccccc4C3=O)c(OC)c2)OC1=O", "note": "(stereo not given)", "GI50": "inactive: 17.7 µM"},
      {"molecule": "C/N=C(\\S)N/N=C/C(C)=N/N/C(S)=N/C", "GI50": "active: 0.278 µM"},
      {"molecule": "COc1ccc(Cc2nc3cc(C(F)(F)F)ccc3n2C[C@@H]2CCCN3CCCCC23)cc1", "note": "(stereo not given in full)", "GI50": "inactive: 14.1 µM"},
      {"molecule": "O=CCCCCCOCc1ccccc1", "GI50": "inactive: > 100 µM"},
      {"molecule": "COc1ccc(N2C(=O)/C(=C/c3ccc(N(CCC#N)CCC#N)cc3C)N=C2c2cc([N+](=O)[O-])ccc2Cl)cc1", "GI50": "inactive: 6.44 µM"},
      {"molecule": "Cc1cccc(C(C)C)c1NC(=O)C(=O)CC(=O)c1c(C)[n+]([O-])c2ccccc2[n+]1[O-]", "GI50": "inactive: 30.8 µM"},
      {"molecule": "O=[N+]([O-])c1ccc(C2CC(c3ccc(NCc4nc5ccccc5[nH]4)cc3)=NO2)cc1", "note": "(stereo not given)", "GI50": "inactive: 76.6 µM"},
      {"molecule": "CC(=O)OCC1OC(Nc2ccc3nc(C)n(-c4cccc(C)c4)c(=O)c3c2)C(OC(C)=O)C(OC(C)=O)C1OC(C)=O", "note": "(stereo not given)", "GI50": "inactive: > 62.5 µM"},
      {"molecule": "Cc1c(C(=O)CC(=O)C(=O)Nc2cc(Cl)ccc2Cl)[n+]([O-])c2ccccc2[n+]1[O-]", "GI50": "inactive: 33.3 µM"},
      {"molecule": "O=c1[nH]c2c(c(=O)[nH]1)SC(c1ccccc1)C2", "note": "(stereo not given)", "GI50": "inactive: 49.3 µM"},
      {"molecule": "O=[N+]([O-])C(=C(Nc1ccccc1)Nc1ccccc1)/C(Cl)=C(\\Cl)Br", "GI50": "inactive: 15.9 µM"}
    ]}
  ]
}
